Consider 57 molecules from article PMC4336329 (PLoS ONE, 2015).

Each structure is given as a SMILES string. The campaign covered roughly 310,000 compounds. About 14,000 (4.5%) showed an effect of 50% or more. The effect is printed as a negative number. The list shows a part of the results.
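Note: peak tail current of the secondary pulse compared with the same well before compound.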

The target in this experiment is human ether-à-go-go-related gene (hERG) potassium channel (human, UniProt Q12809). Kind of experiment: primary screen, population patch clamp on CHO cells stably expressing hERG.
Chain of human ether-à-go-go-related gene (hERG) potassium channel (Q12809 whole entry, looked up): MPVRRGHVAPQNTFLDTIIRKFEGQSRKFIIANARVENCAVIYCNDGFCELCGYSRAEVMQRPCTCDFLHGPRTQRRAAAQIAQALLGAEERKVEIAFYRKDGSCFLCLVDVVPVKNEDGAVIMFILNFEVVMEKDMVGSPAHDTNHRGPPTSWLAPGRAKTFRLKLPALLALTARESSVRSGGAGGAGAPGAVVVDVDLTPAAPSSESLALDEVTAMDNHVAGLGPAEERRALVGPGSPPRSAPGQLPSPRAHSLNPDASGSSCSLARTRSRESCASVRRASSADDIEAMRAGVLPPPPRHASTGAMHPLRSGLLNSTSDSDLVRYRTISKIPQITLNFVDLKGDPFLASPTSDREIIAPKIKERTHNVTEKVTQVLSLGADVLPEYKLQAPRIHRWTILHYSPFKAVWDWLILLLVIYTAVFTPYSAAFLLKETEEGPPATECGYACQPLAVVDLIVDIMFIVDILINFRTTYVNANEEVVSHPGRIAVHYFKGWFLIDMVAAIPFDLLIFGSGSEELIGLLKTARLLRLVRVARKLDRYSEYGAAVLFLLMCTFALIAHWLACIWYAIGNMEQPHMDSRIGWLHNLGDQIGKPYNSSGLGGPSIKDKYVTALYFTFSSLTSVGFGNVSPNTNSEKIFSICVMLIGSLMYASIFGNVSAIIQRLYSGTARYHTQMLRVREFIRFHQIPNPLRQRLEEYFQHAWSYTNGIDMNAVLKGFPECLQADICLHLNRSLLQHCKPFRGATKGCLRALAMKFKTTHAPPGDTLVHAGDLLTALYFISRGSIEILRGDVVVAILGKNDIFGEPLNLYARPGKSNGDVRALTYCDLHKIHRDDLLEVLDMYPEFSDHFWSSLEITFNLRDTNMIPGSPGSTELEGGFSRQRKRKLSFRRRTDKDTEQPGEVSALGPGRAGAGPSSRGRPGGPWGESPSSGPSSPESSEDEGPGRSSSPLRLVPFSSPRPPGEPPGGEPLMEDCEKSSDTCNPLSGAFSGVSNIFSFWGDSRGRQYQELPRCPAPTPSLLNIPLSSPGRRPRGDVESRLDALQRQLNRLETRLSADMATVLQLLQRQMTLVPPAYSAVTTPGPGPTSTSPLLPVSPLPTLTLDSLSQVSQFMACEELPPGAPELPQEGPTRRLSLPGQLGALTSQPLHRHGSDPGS
As to `Cc1cc(CN2CCCC(C(=O)Nc3cccc(-n4cccn4)c3)C2)cc(C)c1O` (stereo not drawn), the “hERG current change (%, negative = inhibition) at 10uM” value is -42%.

On to `CCOC(=O)C1CCN(S(=O)(=O)c2cccc(-c3cn4cccc(C)c4n3)c2)CC1`, for which the “hERG current change (%, negative = inhibition) at 10uM” value was -21.3%. To `CCOCCCNC(=S)Nc1ccc(S(N)(=O)=O)cc1` belongs 8.83%. The figure for `CC(C)S(=O)(=O)c1csc(NC(=O)Nc2cccc([N+](=O)[O-])c2)c1Cl` is -36.9%; for `CCCC(=O)Nc1ccc(Cl)c(NC(=O)C(C)(C)C)c1` it is -9.68%. As to `CC(C)=CCN1CCN(Cc2cccn2-c2ncccn2)CC1CCO` (stereo not drawn), the “hERG current change (%, negative = inhibition) at 10uM” value is recorded as -39.6%. To `COc1ccc(NC(=O)c2csc(C)c2)cc1OC` belongs 9.55%. To `CCOC(=O)c1sc(-c2ccccc2)cc1NC(=O)Nc1ccccc1` belongs 9.44%. The figure for `COc1cc(/C=N/NC(=O)c2ccc3c(c2)OCO3)ccc1O` is -10.5%. For `CC(O)c1nc2ccccc2n1C1CCCCC1` (stereo not drawn), the “hERG current change (%, negative = inhibition) at 10uM” value is on record as -4.64%. The figure for `Nc1c(C(=O)O)cnn1-c1ccc([N+](=O)[O-])cc1` is 24.3%; for `CCOC(=O)c1ccc(CNC(=O)CCC(=O)O)cc1` it is 4.15%; for `COCCn1c(SCC(=O)NC2CCCC2)nnc1C(C)C` it is 22.6%.

Regarding `Cc1ccc2cc(CN(CC3CCCO3)C(=S)NCc3ccco3)c(=O)[nH]c2c1` (stereo not drawn), the “hERG current change (%, negative = inhibition) at 10uM” value is recorded as 11.1%. `O=S(=O)(c1ccc(NC(=S)NCCc2ccccc2)cc1)N1CCOCC1`: the “hERG current change (%, negative = inhibition) at 10uM” value was -6.2%. To `CCCc1nnc(NC(=O)CCC(=O)N2CCCCC2)s1` belongs -1.96%. For the molecule `Cc1ccccc1C(=O)NC(=S)NCc1cccnc1`, the “hERG current change (%, negative = inhibition) at 10uM” value is reported as 31.9%. The figure for `Cc1cnc(NC(=O)c2cccc(S(=O)(=O)N3CC(C)OC(C)C3)c2)s1` (stereo not drawn) is -18.8%; for `Cc1ccc(-n2ncc3c2CCCC3NC(=O)CCc2cnccn2)cc1C` (stereo not drawn) it is -15.1%; for `Cc1ccccc1NC(=O)NNC(=O)COc1ccc2ccccc2c1` it is 8.93%. To `CCOc1ccc2c(c1)c1nnc(SCC3CCCO3)nc1n2C` (stereo not drawn) belongs -40.8%; to `Cc1sc2nc(COC(=O)c3ccc(N4CCCC4)c([N+](=O)[O-])c3)[nH]c(=O)c2c1C`, 1.46%; to `CN(CCO)c1nc(N)c2c(N)nc3c(c2c1C#N)CC(=O)N3Cc1cccs1`, -29.6%. To `CNc1nc(Cl)c(SC)c(NC2CCCCC2)n1` belongs 4.19%; to `CCn1ccnc1CN(C)Cc1nc(-c2cccc(Cl)c2)no1`, -44.1%; to `CC(C)(C)OC(=O)N1CCCC1C(=O)O` (stereo not drawn), 26.5%. Take `Cn1c(SCC(=O)Nc2ccc(N3CCOCC3)cc2)nnc1C1CC1`: the “hERG current change (%, negative = inhibition) at 10uM” value was found to be 7.98%. The figure for `O=C(CCS(=O)(=O)c1ccccc1F)Nc1ccc(N2CCN(Cc3ccccc3)CC2)cc1` is 9.6%; for `CC(=O)C1=C(C)NC(SCC(=O)c2ccc(F)cc2)=C(C#N)C1CC(C)C` (stereo not drawn) it is 16.3%; for `CC(C)(O)C(=O)NN(Cc1ccccc1)c1ccccc1` it is 16.2%. On to `CCO[C@H]1OC(C(=O)N2CCN(Cc3ccc4c(c3)OCO4)CC2)=C[C@@H](c2csc3ccccc23)[C@@H]1CCCO`, for which the “hERG current change (%, negative = inhibition) at 10uM” value came to 13.1%. To `CC(Cc1cccs1)NC(=O)Nc1ccc(Cl)c(Cl)c1` (stereo not drawn) belongs 19.8%.

Regarding `O=C(C1=C(O)C(=O)N(CC2CCCO2)C1c1ccccc1[N+](=O)[O-])c1ccco1` (stereo not drawn), the “hERG current change (%, negative = inhibition) at 10uM” value stood at 15.8%.

`O=S(=O)(Nc1nc(-c2ccccc2)cs1)c1cccc(C(F)(F)F)c1`: the “hERG current change (%, negative = inhibition) at 10uM” value was 17.4%.

Turning to `CCn1c(SC/C=C/c2ccccc2)nnc1-c1cnccn1`, the “hERG current change (%, negative = inhibition) at 10uM” value is -14.7%.

Turning to `CN(CC(=O)Nc1cccc(F)c1)CC(=O)Nc1cccc(S(=O)(=O)N2CCCCC2)c1`, the “hERG current change (%, negative = inhibition) at 10uM” value is recorded as -19.6%. The figure for `COc1cc(C(=O)OCC(=O)N2CCN(C(C)=O)CC2)ccc1OCC(C)C` is 15.4%; for `O=C(c1cc(COc2c(F)cccc2F)on1)N1CCCCCC1` it is 4.46%; for `CCOC(=O)CSc1nc2ccc(NC(C)=O)cc2s1` it is -0.523%. In the case of `CCCOc1cccc(OCC(=O)Nc2nc3ccccc3[nH]2)c1`, the “hERG current change (%, negative = inhibition) at 10uM” value turned out to be 17.4%. To `CC(=O)Nc1ccc(NC(=O)C(C)Sc2nc3ccccc3c(=O)n2CC2CCCO2)cc1` (stereo not drawn) belongs 7.41%.

As for `Cc1ccc(N2C(=O)NC(C(F)(F)F)(C(F)(F)F)C3=C2CC(C)(C)CC3=O)cc1`, the “hERG current change (%, negative = inhibition) at 10uM” value amounted to 5.75%. For `COc1ccc(-n2nnc3c(=O)n(CC(=O)Nc4cc(C)on4)cnc32)cc1`, the “hERG current change (%, negative = inhibition) at 10uM” value was 12.6%. The figure for `CCOC(=O)/C(C#N)=C1/SC(CCO)C(=O)N1c1ccccc1` (stereo not drawn) is 21.2%; for `O=C(CSc1nnnn1C1CCCCC1)N1CCCC1` it is -2.5%; for `N#C/C(=C\c1ccc(-c2ccc(Br)cc2)o1)C(=O)NCCc1c[nH]c2ccccc12` it is 21%. Regarding `CC(C)=CC(=O)Nc1ccc(S(=O)(=O)Nc2ccccn2)cc1`, the “hERG current change (%, negative = inhibition) at 10uM” value is -5.94%. The figure for `O=C(CN(C1CCCCC1)S(=O)(=O)c1ccc(F)cc1)NCCCO` is 1.65%; for `Nc1ccc(-c2cc(-c3ccc(N)cc3)nc(-c3ccccc3)n2)cc1` it is 11.8%; for `CCc1ccccc1NC1=NCC(=O)N1Cc1ccc2c(c1)OCO2` it is -12.6%. The figure for `Cl.Nc1ccc2c(c1)oc1ccccc12` is 4.15%; for `O=C(Cn1nnc(-c2ccccc2)n1)Nc1cccc(S(=O)(=O)N2CCOCC2)c1` it is -56.2%; for `CCOC(=O)C1CCN(C(=O)CCc2nc3sc4c(c3c(=O)[nH]2)CCCC4)CC1` it is -2.9%.

In the case of `CCOC(=O)c1ccc(NC(=O)CSc2nc3cccnc3n2C)cc1`, the “hERG current change (%, negative = inhibition) at 10uM” value was found to be 1.32%.

In the case of `C#CCN(Cc1ccco1)C(=O)c1ccc(OC2CCN(Cc3ccccn3)CC2)cc1`, the “hERG current change (%, negative = inhibition) at 10uM” value is listed as -66.9%.

In the case of `CCOC(=O)N1CCN(C(=O)CSc2nnc3[nH]c(=O)c(C)c(C)n23)CC1`, the “hERG current change (%, negative = inhibition) at 10uM” value is 3.06%. The figure for `O=C(COC(=O)CCc1c[nH]c2ccccc12)Nc1ccccc1C(F)(F)F` is -5.09%.
